Experimental data: PubChem BioAssay AID686979 (National Center for Advancing Translational Sciences (NCATS), 2013)
Hit rate of the full screen: of about 420,000 compounds, about 50,000 (12%) were called active. Inconclusive results, whose numbers are uncertain, are shown with a selection of clear calls. Calls follow the shape of the dose curve; as a rule, active = well fitted inhibition curve with a large enough effect; inconclusive = small, poorly fitted or top-dose-only effect; inactive = flat fitted curve, though single readings scatter. No potency is given beside an inconclusive call; the fits are too rough.

experiment: qHTS for Inhibitors of human tyrosyl-DNA phosphodiesterase 1 (TDP1): qHTS in cells in presence of CPT; settings: chicken DT40 Tdp1-/-;hTDP1 cells + 20 nM CPT, ATP luminescence, 48 h; activity change, negative = growth inhibition: at 46.2 µM (top of the series) unless noted; also: nearly all actives have a fitted effect of over 55% in size
Procedure, shortened: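 Chicken DT40 Tdp1-/- cells complemented with human TDP1, 400 cells/well, exposed to compounds plus 20 nM camptothecin for at least 48 h at 37 C; viability read as ATP content by CellTiter-Glo luminescence.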
% is scaled to controls: 0 for no effect and ±100 for the full control effect; potency is read from the fitted curve at half-maximal effect; tags tell the direction and shape of the fitted curve.

Compound | Potency | activity change, negative = growth inhibition
COc1ccc(OCC(=O)Nc2ccc(N3CCN(C(=O)c4ccccc4C)CC3)cc2)cc1 | active: 25.9 µM | 
CCNc1nc(NC(C)C)nc(Oc2ccc(OCCOc3ccc(C)cc3)nn2)n1 | active: 20.6 µM | 
Cc1ccc(-n2ncc(C(=O)N3CCN(Cc4ccccc4)CC3)c2C2CCN(C(=O)OC(C)(C)C)CC2)c(C)c1 | active: 4.61 µM | 
CCCC(=O)OCC1CN(Cc2ccco2)S(=O)(=O)c2c(F)cccc2O1 (configuration not stated) |  | inconclusive: -34.5% [inhibitor]
CN(C(=S)Nc1ccc(F)cc1)C(c1ccccc1)c1ccccc1 | inconclusive [inhibitor, single point] | 
COc1cc(NC(=O)CCn2c(=S)oc3ccccc32)cc(OC)c1OC | inactive | 
Cc1ccccc1Nc1nc(-c2sc(NC(=O)c3ccco3)nc2C)cs1 | inconclusive [inhibitor, partial curve] | 
C(=C\c1ccccc1)/C=N/Nc1nc(N2CCCCC2)nc(N2CCCCC2)n1 | active: 11.6 µM | 
CCN(CC)S(=O)(=O)c1ccc2c(c1)nc(CCC(=O)OCC(=O)Nc1c(F)cccc1F)n2C | inactive | 
Cc1ccc2sc(NNC(=O)C3COc4ccccc4O3)nc2c1C (configuration not stated) | active: 25.9 µM | 
CC(/C=N/NC(=O)Cc1cccs1)=C\c1ccco1 | inconclusive [inhibitor, partial curve] | 
COc1ccc([N+](=O)[O-])cc1NC(=O)CSc1nc(C)cc(C)n1 | active: 16.4 µM | 
CCN(c1ccccc1)S(=O)(=O)c1ccc(C(=O)Nc2ccccc2OC)cc1 | inconclusive [inhibitor, partial curve] | 
CC1=C(C(=O)N(C(C)C)C(C)C)CC(CC(=O)NCc2cccs2)C(=O)N1Cc1ccc(C(C)(C)C)cc1 (configuration not stated) | inconclusive [inhibitor, single point] | 
O=C(COC(=O)Cc1ccc(S(=O)(=O)N2CCOCC2)s1)Nc1ccccc1Cl | inconclusive [inhibitor, single point] | 
Cc1ccsc1C(=O)NNC(=S)NC1CCCCC1 | inactive | 
Fc1ccccc1-n1[nH]nnc1=S | inconclusive [inhibitor, single point] | 
CN(C)c1ccc(NC(=O)Cn2c(SCc3ccccc3F)nc3cccnc32)cc1 | inconclusive [inhibitor, partial curve] | 
Cc1ccc(C)c(S(=O)(=O)c2nnn3c2nc(NCc2ccc4c(c2)OCO4)c2sccc23)c1 | active: 18.4 µM | 
FC(F)Oc1ccc(NC(=S)NC2CCCCCCC2)cc1 | inconclusive [inhibitor, single point] | 
O=C(CN1C(=O)NC2(CCOc3ccccc32)C1=O)c1ccc[nH]1 (configuration not stated) | inactive | 
CC(C)(C)NC(=O)COC(=O)c1cc(Cl)ccc1[N+](=O)[O-] | inactive | 
O=C(CCSc1ccc(Cl)cc1)Nc1cccnc1 | inconclusive [inhibitor, single point] | 
CCN(CC)c1nc(Nc2ccccc2)nc(Oc2ccc(C(=O)OC)cc2)n1 | inconclusive [inhibitor, single point] | 

Compound | Potency | activity change, negative = growth inhibition
CN(C)c1ccc(C(CNS(=O)(=O)c2ccc(Br)cc2)N2CCOCC2)cc1 (configuration not stated) | inconclusive [inhibitor, single point] | 
CCCc1cc(Nc2cccc(OCC)c2)n2ncnc2n1 | inconclusive [inhibitor, partial curve] | 
CCN(CC)Cc1c(C(=O)N/N=C/c2ccccn2)nnn1-c1nonc1N | inactive | 
CC(C)Cn1c(N)c(C(=O)COC(=O)c2ccccc2C(=O)c2ccccc2)c(=O)n(C)c1=O | active: 16.4 µM | 
OCC(Cc1ccc2c(c1)OCO2)C(CO)Cc1ccc2c(c1)OCO2 (configuration not stated) | inconclusive [inhibitor, partial curve] | 
CCCCN1C(=S)NC[C@@H]1Cc1ccccc1 | inconclusive [inhibitor, single point] | 
N=c1n(CCc2ccccc2)c2ccccc2n1Cc1ccccc1F | active: 7.31 µM | 
COc1ccc(-c2nnc(SCC(=O)Nc3ccc(F)cc3)s2)cc1 | inactive | 
O=c1c2c3c(sc2n2cnnc2n1CCc1ccccc1)CCCC3 | inconclusive [inhibitor, single point] | 
Nc1nonc1-c1nc2ccccc2n1CC(=O)N1CCN(c2ccc(F)cc2)CC1 | inconclusive [inhibitor, partial curve, poor fit] | 
CCOC(=O)C1CCN(C(=O)COC(=O)c2nn(C)c(=O)c3ccccc23)CC1 | inactive | 
C[C@H](CO)N1C[C@H](C)[C@H](CN(C)S(=O)(=O)c2cccc(F)c2)OCc2ccccc2-c2c(n(C)c3ccccc23)C1=O | active: 10.3 µM | 
CCOC(=O)c1cnc(SCC(=O)OC)nc1N |  | inconclusive: -25.5% [inhibitor]
O=C(NCc1ccccc1)c1ccc2ccccc2n1 | inactive | 
CC(C)c1ccc(/C=N/Nc2ccc(C(=O)O)cc2)cc1 | inactive | 
N#CCSc1nnc(C2CCCCC2)n1Cc1ccccc1 | active: 10.3 µM | 
COc1cccc(N/C=C(\C#N)c2ccc(OCCCF)cc2)c1 | active: 18.4 µM | 
COc1cc(-c2cc(NC=O)c3ncc(-c4ccc(C(C)=O)cc4)n3c2)cc(OC)c1OC | active: 10.3 µM | 
COCCNc1nnc(Cc2ccc(Cl)cc2)c(=O)[nH]1 | inactive | 
Cc1ccc(OCCC(=O)OCC(=O)N2CC(=O)Nc3ccccc32)cc1 | inconclusive [inhibitor, single point] | 
Cc1ccc2nc(C3CCCCC3)c(CC(C)(C)C)n2c1 | inconclusive [inhibitor, single point] | 
CC[C@H](C)[C@H](NC(=O)OCc1ccccc1)C(=O)OCC(=O)N1CCN(c2ccc(F)cc2)CC1 | inconclusive [inhibitor, partial curve, poor fit] | 
Cc1ccc(-c2c(C(=O)NCCc3ccc(Cl)cc3)oc(=O)c3ccccc23)cc1 | inconclusive [inhibitor, single point] | 
CC1(c2ccccc2)CC(C)(C)N2C(=O)C3(C(C#N)=C(N)Oc4cc(O)ccc43)c3cccc1c32 (configuration not stated) | inconclusive [inhibitor, single point] | 

Compound | Potency | activity change, negative = growth inhibition
COC(=O)c1c(-c2ccccc2OC)sc2ccc(OC)cc12 | inconclusive [inhibitor, single point] | 
Cc1cccc(N2C(=O)CCSC23C(=O)N(Cc2ccc(F)cc2)c2ccccc23)c1 (configuration not stated) | active: 9.2 µM | 
COc1cc(NC(=O)c2nccn2C)cc(C(=O)Nc2cccc(C(F)(F)F)c2)c1 | inconclusive [inhibitor, single point] | 
O=C1C=CC(=O)N1c1ccc(N2CCCCC2)cc1 | active: 1.16 µM | 
CCC(C)NC(=O)Cn1cc(S(=O)(=O)N2CCN(c3ccccc3F)CC2)c2ccccc2c1=O (configuration not stated) | inconclusive [inhibitor, single point] | 
CC(C)NC(=O)c1cc(C2CCCCN2S(=O)(=O)c2ccccc2)on1 (configuration not stated) | inactive | 
Cc1sc2nc(C3CCCCC3)nc(SCC(=O)N3CC(=O)Nc4ccccc43)c2c1C | inconclusive [inhibitor, single point] | 
COc1ccc(NC(=O)C2=C(C)Nc3nc(SCc4ccccc4)nn3C2c2cc(OC)ccc2OC)cc1 (configuration not stated) | inconclusive [inhibitor, single point] | 
COc1ccc(-n2c(SC)nc3sc4c(c3c2=O)CCN(C)C4)cc1 | inconclusive [inhibitor, single point] | 
O=c1c2cc(-c3ccccc3)sc2ncn1/N=C/c1ccco1 | inactive | 
O=[N+]1C2=C(CCCC2)N([O-])C12CCCC2 | inactive | 
CCCNC(=O)c1cc(-c2ccc(OC)cc2)on1 |  | inconclusive: -35% [inhibitor]
Cc1ccc(Cn2ccc(NC(=O)c3cc(-c4ccc(Cl)c(Cl)c4)on3)n2)cc1 | inconclusive [inhibitor, partial curve, poor fit] | 
COCCc1nn2c(=O)cc(COC(=O)c3ccc(C(C)(C)C)cc3)nc2s1 | inconclusive [inhibitor, single point] | 
Cc1ccc(S(=O)(=O)N2CCN(C(=O)COC(=O)c3cccc(Cl)c3)CC2)c(C)c1 | inconclusive [inhibitor, single point] | 
Cc1cc(NC(=O)C2CCCCC2)n(-c2nc3ccccc3[nH]2)n1 | active: 23.1 µM | 
CCOc1cc(S(=O)(=O)NCc2cccnc2)c(C)cc1C | inconclusive [inhibitor, single point] | 
CCCN1C(=O)C(O)(CC(=O)c2cccc(OC)c2)c2ccccc21 (configuration not stated) | active: 4.11 µM | 
O=C(COc1ccccc1Cl)Nc1ccc(C(=O)N2CCCCC2)cc1 | inconclusive [inhibitor, single point] | 
CCCc1cc(C(=O)NNC(=S)NC2CCCCC2)cs1 | inconclusive [inhibitor, single point] | 
OCC1(CCc2ccccc2)CCN(Cc2ccc(OC(F)F)cc2)CC1 | inconclusive [inhibitor, single point] | 
Cc1ccn2c(=O)nc(SCC(=O)N3CCC(Cc4ccccc4)CC3)nc2c1 | inconclusive [inhibitor, single point] | 
Cc1ccc(Nc2nc(N/N=C/c3c[nH]c4ccccc34)nc(N3CCOCC3)n2)cc1 | active: 20.6 µM | 
CCOC(=O)c1c(C2CC2)csc1NC(=O)COC(=O)c1cc(OC)c(OC)cc1[N+](=O)[O-] | inconclusive [inhibitor, single point] | 
